# Laboratory results published in article PMC4336329 (PLoS ONE, 2015).
# Out of some 310,000 compounds screened, about 2,200 (0.71%) showed an effect of 50% or more. Effects have a minus sign here. Some of the results follow.
# Molecular target: human ether-à-go-go-related gene (hERG) potassium channel (human, UniProt Q12809)
# Assay: primary screen, population patch clamp on CHO cells stably expressing hERG
# Sequence of human ether-à-go-go-related gene (hERG) potassium channel (Q12809 whole entry, looked up): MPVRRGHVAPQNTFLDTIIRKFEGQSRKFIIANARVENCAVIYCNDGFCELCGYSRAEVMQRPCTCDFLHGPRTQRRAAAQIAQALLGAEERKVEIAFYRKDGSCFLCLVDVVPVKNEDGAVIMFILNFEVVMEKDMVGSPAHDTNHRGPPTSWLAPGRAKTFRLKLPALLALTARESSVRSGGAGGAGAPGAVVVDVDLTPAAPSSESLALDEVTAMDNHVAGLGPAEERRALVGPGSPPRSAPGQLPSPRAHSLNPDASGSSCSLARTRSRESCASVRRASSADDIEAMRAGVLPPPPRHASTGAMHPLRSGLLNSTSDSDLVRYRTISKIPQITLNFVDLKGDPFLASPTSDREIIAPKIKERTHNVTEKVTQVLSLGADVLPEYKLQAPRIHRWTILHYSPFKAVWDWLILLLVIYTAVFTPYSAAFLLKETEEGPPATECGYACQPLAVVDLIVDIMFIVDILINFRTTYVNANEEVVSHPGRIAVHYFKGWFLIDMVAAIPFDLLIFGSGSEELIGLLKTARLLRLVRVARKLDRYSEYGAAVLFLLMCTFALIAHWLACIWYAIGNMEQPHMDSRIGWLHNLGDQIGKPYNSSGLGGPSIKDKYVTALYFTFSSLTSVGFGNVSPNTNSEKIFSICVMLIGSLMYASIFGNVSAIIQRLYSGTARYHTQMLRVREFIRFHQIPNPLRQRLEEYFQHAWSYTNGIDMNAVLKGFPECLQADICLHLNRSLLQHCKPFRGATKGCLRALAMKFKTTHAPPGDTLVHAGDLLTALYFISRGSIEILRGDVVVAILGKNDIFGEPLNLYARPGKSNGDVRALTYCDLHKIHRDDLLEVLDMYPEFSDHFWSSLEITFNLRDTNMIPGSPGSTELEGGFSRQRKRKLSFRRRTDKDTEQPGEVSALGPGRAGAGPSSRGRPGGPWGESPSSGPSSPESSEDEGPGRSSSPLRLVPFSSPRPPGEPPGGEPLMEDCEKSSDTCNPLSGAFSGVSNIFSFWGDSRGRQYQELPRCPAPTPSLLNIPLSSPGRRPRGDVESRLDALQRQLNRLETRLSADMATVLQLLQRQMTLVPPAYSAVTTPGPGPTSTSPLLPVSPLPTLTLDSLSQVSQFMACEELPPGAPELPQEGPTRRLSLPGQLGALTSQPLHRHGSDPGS
row,SMILES,"hERG current change (%, negative = inhibition) at 1uM"
1,Clc1ccc(SCc2cc(-c3ccccc3)on2)cc1,8.23%
2,CC(=O)c1cccc(NC(=O)CCC(=O)Oc2ccc(C)cc2)c1,-3.64%
3,N#C/C(=C\c1ccc[nH]1)C(=O)NCC1CCCO1 (stereo not drawn),9.61%
4,CCOC(=O)c1cnc(SC2CC(=O)N(c3ccccc3)C2=O)nc1N (stereo not drawn),14.8%
5,CN(Cc1ccco1)C(=O)CCc1nc2sc3c(c2c(=O)[nH]1)CCCC3,-2.08%
6,CCOC(=O)c1ccc(NC(=S)N(CCN2CCCCCC2)Cc2cccs2)cc1,8.82%
7,O=C(O)c1ccc(S(=O)(=O)NC2CCCc3ccccc32)cc1 (stereo not drawn),0.186%
8,CN1/C(=C\C(=S)Nc2ccccc2)C(C)(C)c2ccccc21,10.9%
9,Cc1ccc(/C=C/C(=O)O)cc1S(=O)(=O)Nc1ccc(C(=O)O)cc1,2.74%
10,N#CC(=C=[N-])c1nc2ccccc2nc1-[n+]1cccc(NC(=O)c2cccs2)c1,3.38%
11,Cc1ccc(NC(=O)C2CCN(C(=O)NC3CCCCC3)CC2)cc1,9.08%
12,O=C(CSc1nnc(-c2ccncc2)s1)Nc1ccc(Cl)c(C(=O)O)c1,16.2%
13,Cc1ccc(C)c(N2CCN(S(=O)(=O)c3csc(C(N)=O)c3)CC2)c1,10.7%
14,O=C(CSc1ccccc1Cl)N1CCC(c2nc3ccccc3s2)CC1,6.29%
15,CCN(CC)C(=O)C1=C(C)NC(=O)NC1c1ccccc1F (stereo not drawn),-2.94%
16,COc1ccc(S(=O)(=O)c2ccc(OCC3CO3)cc2)cc1 (stereo not drawn),12.7%
17,CCOc1ccc(C(=O)C[n+]2ccc(C(=O)NCCO)cc2)cc1.[Br-],11.4%
18,Cc1cc(OCC(=O)N[C@@H](Cc2ccccc2)C(=O)O)c2c3c(c(=O)oc2c1)CCCC3,6.7%
19,O=C(Nc1ccc(S(=O)(=O)Nc2ncccn2)cc1)c1ccc(N2CCCC2=O)cc1,13.8%
20,CCN(CC(=O)NCc1cccs1)CC(=O)Nc1cccc(S(N)(=O)=O)c1,14.5%
21,c1ccc(-c2csc(NC3CCCCC3)n2)cc1,14.8%
22,CCCCCCNCc1ccc(Br)cc1.Cl,-23.8%
23,O=C(c1ccc(Cn2cc([N+](=O)[O-])cn2)o1)N1CCCCCC1,3.04%
24,COc1ccc(N2CCN(C(=O)CSc3nnc(COc4cccc5cccnc45)o3)CC2)cc1,4.4%
